Source: PubChem BioAssay AID938 (National Center for Advancing Translational Sciences (NCATS), 2007)
Values joined by “and” are separate entries in the source; they are usually repeats but may differ in a detail not shown here. Identical values can stand only once. Out of some 73,000 compounds screened, about 1,800 (2.5%) were called active. Inconclusive means that the source gave no clear call. Such entries were picked first, then a sample of the others. Calls follow the shape of the dose curve; as a rule, active = well fitted activation curve with a large enough effect; inconclusive = small, poorly fitted or top-dose-only effect; inactive = no such curve, though single readings can be large or run the other way. Where the call is inconclusive, the potency comes from a doubtful curve fit.
Potency is read from the fitted curve at half-maximal effect; tags tell the direction and shape of the fitted curve.

Assay: qHTS Assay for Agonists of the Thyroid Stimulating Hormone Receptor: Activators of Intracellular cAMP Concentrations in Parental HEK 293; also: nearly all actives have a fitted effect of over 55% in size; as to activation: % of control where 0% means no effect
Conditions: parental HEK293 CNG cAMP sensor, membrane potential fluorescence; activation: at 57.1 µM (top of the series) unless noted
In short: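 Counterscreen for endogenous-receptor signalling: CNG-channel HEK 293 cells report cAMP rise by membrane depolarization. After 60 min dye equilibration with 100 uM RO 20-1724, compounds incubated 30 min before bottom-read fluorescence at 590 nm.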
With `O=c1c(-c2cccs2)nc2cnc(N3CCOCC3)nc2n1Cc1cccs1` the Potency was “inactive”.
For `COCCn1c(=O)c(CCc2ccccc2)nc2cnc(OC)nc21`, the Potency was “inactive”.
With `COc1cc(OC)cc(-c2nc(-c3cc4cc(C)ccc4nc3OC)no2)c1` the Potency was inconclusive: 15.8 µM [activator, partial curve].
In the case of `CC(C)(C)n1ncc2c(=O)n(Cc3c(F)cccc3Cl)cnc21`, the Potency is reported as inconclusive: 15.8 µM [activator, partial curve].
In the case of `Oc1ccc2ccccc2c1CN(Cc1c(O)ccc2ccccc12)C1CCCCC1`, the activation is reported as inactive: -0.623% [at 11.4 µM].
With `CCOC(=O)c1ccc(N2C(=O)CC(N3CCN(C/C=C/c4ccccc4)CC3)C2=O)cc1` (stereo not drawn) the Potency was inconclusive: 0.199 µM [activator, partial curve].
In the case of `CCOC(=O)N1CCC(NC(=O)c2cc3c(-c4ccccc4F)nn(C)c3s2)CC1`, the Potency is reported as “inactive”.
In the case of `Cc1cccc(CNc2ncnc3ccc(-c4c(C)noc4C)cc23)c1`, the Potency is reported as inconclusive: 15.8 µM [activator, partial curve].
With `O=c1c(-c2ccc(F)cc2)nc2cnc(Nc3ccccc3)nc2n1Cc1cccs1` the Potency was “inactive”.
For `Cc1nn(Cc2ccccc2)c2sc(C(=O)N3CCN(Cc4ccc5c(c4)OCO5)CC3)cc12`, the Potency was “inactive”.
With `Clc1ccc(OCc2nn3c(C4CCCCC4)nnc3s2)c(Cl)c1` the Potency was active: 31.6 µM.
With `Cc1cnc(CNc2cc(-c3ccccc3C(F)(F)F)ncn2)cn1` the Potency was inconclusive: 0.0398 µM [activator, full curve, poor fit].
For `O=C1c2oc3ccccc3c(=O)c2C(c2cccc(Br)c2)N1Cc1ccco1` (stereo not drawn), the Potency was active: 12.6 µM.
For `CCOC(=O)N1CCC(NC(=O)c2cccc3c2C(=O)N(Cc2cccnc2)C3)CC1`, the Potency was “inactive”.
In the case of `COc1ccccc1N=c1oc2cc(O)ccc2cc1C(N)=O`, the Potency is reported as “inactive”.
With `CC(C)(C)c1cc(/C=C(\C#N)C(N)=S)cc(C(C)(C)C)c1O` the Potency was active: 3.16 µM.
In the case of `COc1ccccc1C(=O)Nc1nc2ccc(S(C)(=O)=O)cc2s1`, the Potency is reported as “inactive”.
In the case of `Cn1cc(-c2nc3cnc(N4CCOCC4)nc3n(CCC#N)c2=O)c2ccccc21`, the Potency is reported as “inactive”.
In the case of `Fc1ccc(-c2nc3n(n2)Cc2ccccc2-3)cc1`, the Potency is reported as “inactive”.
In the case of `COC(=O)c1ccc(Cn2cnc3c(cnn3-c3ccc(C)c(C)c3)c2=O)o1`, the Potency is reported as active: 3.16 µM.
With `CCn1cc(C(=O)NC2CCCCC2C)c(=O)c2ccc(C)nc21` (stereo not drawn) the Potency was inconclusive: 25.1 µM [activator, single point].
For `CCCCN(CC)C(=O)CN(C)S(=O)(=O)c1cccc2nsnc12`, the Potency was inconclusive: 7.94 µM [activator, single point].
In the case of `C[C@H](NC(=O)/C(C#N)=C/c1ccc(O)c(O)c1)c1ccccc1`, the Potency is reported as inconclusive: 6.31 µM [activator, single point] and inconclusive: 39.8 µM [activator, single point].
For `COc1ccc(CN(C)CC(=O)c2c(N)n(Cc3ccccc3)c(=O)n(C)c2=O)c(OC)c1`, the Potency was inconclusive: 39.8 µM [activator, single point].
For `CC(C)Oc1cccc(C(=O)Nc2ccccc2N2CCOCC2)c1`, the Potency was inconclusive: 15.8 µM [activator, single point].
For `CCCCC(NS(=O)(=O)c1ccc(OC)cc1)C(=O)O` (stereo not drawn), the Potency was inconclusive: 3.98 µM [activator, single point].
In the case of `CCOC(=O)CSc1nc2cc(C)cc(C)c2cc1C#N`, the Potency is reported as inconclusive: 39.8 µM [activator, single point].
In the case of `Cc1cc2nnc(SC3CCOC3=O)n2c2ccccc12` (stereo not drawn), the Potency is reported as “inactive”.
For `O=C(O)c1ccc(/C=N\N=C2c3ccccc3-c3ccccc32)cc1`, the activation was inactive: 26.5% [at 11.4 µM].
In the case of `Cc1cccc(OCCn2c(CCCO)nc3ccccc32)c1`, the Potency is reported as inconclusive: 31.6 µM [activator, single point].
For `Cn1cc(-c2nc3cnc(OCc4ccccc4)nc3n(CCC#N)c2=O)c2ccccc21`, the Potency was inconclusive: 3.16 µM [activator, single point].
With `CSc1nnc2c(n1)OC(c1ccsc1)N(C(C)=O)c1ccccc1-2` (stereo not drawn) the Potency was inconclusive: 6.31 µM [activator, single point].
In the case of `COC(=O)c1ccccc1NC(=O)Cn1cnc2cc(C)c(C)cc21`, the Potency is reported as inconclusive: 6.31 µM [activator, single point].
For `COc1ccccc1NC(=O)c1cc(Cl)ccc1NC(=O)c1ccco1`, the Potency was active: 25.1 µM.
For `N#CCSc1nc2c(c(C3CC=CCC3)c1C#N)CCC2` (stereo not drawn), the Potency was active: 10 µM.
In the case of `O=C(O)c1cc(C(=O)O)nc(C(=O)O)c1`, the Potency is reported as inconclusive: 3.98 µM [activator, single point].
With `Cc1cc(C)n(-c2ccc3cccc(NS(C)(=O)=O)c3n2)n1` the Potency was inconclusive: 5.01 µM [activator, full curve].
For `Cc1ccc(-n2ncc(C#N)c2/N=C/N2CCCCCC2)cc1`, the Potency was active: 31.6 µM.
With `CC1Cc2cc(/C(O)=C3/C(=O)C(=O)N(CCCn4ccnc4)C3c3ccco3)ccc2O1` (stereo not drawn) the Potency was inconclusive: 5.01 µM [activator, single point].
For `[O-]/[N+](=C\c1ccncc1)c1ccc(Br)cc1`, the Potency was “inactive”.
For `CN(CCC(=O)Nc1ccc2c(c1)OCO2)Cc1ccccc1`, the Potency was “inactive”.
With `Cn1c(=O)c2c(ncn2CCCc2ccccc2)n(C)c1=O` the Potency was inconclusive: 3.98 µM [activator, single point].
With `O=C(CCCc1ccc(-c2ccccc2F)cc1)Nc1ccc(O)cc1` the Potency was inconclusive: 3.16 µM [activator, partial curve].
For `COc1ccc(CCNC(=O)CCNS(=O)(=O)c2ccc3c(c2)CCN3C(C)=O)cc1OC`, the Potency was inconclusive: 2 µM [activator, full curve].
In the case of `O=S1(=O)c2cccc3cccc(c23)N1Cc1ccc(-c2nnco2)cc1`, the Potency is reported as inconclusive: 39.8 µM [activator, single point].
In the case of `CC1C2C(c3ccccc3)N(C)C(=O)N(C)C2N(C)C(=O)N1C` (stereo not drawn), the Potency is reported as inconclusive: 31.6 µM [activator, single point].
With `CC1(C)CC(=O)C(C(=O)CCCCC(=O)C2C(=O)CC(C)(C)CC2=O)C(=O)C1` the Potency was inconclusive: 3.16 µM [activator, partial curve].
For `CCOC(=O)c1ccccc1NC(=O)CC1SC(=NC)N(C)C1=O` (stereo not drawn), the Potency was inconclusive: 39.8 µM [activator, single point].
In the case of `CCc1cccc2nc3c(c([Si](CC)(CC)CC)c12)Cn1c-3cccc1=O`, the Potency is reported as active: 25.1 µM.
For `CCOc1ccccc1NC(=O)CSc1nnnn1-c1ccc(C(=O)OC)cc1`, the Potency was inconclusive: 0.398 µM [activator, full curve, poor fit].
With `O=C(NCc1ccc2c(c1)OCO2)c1ccccn1` the Potency was “inactive”.
For `CCn1c(COc2cccc(C)c2)nnc1SCC(=O)Nc1cccc(C(=O)OC)c1`, the Potency was inconclusive: 31.6 µM [activator, single point].
In the case of `CCOC(=O)CCN(Cc1cccs1)S(=O)(=O)c1ccc(F)cc1`, the Potency is reported as active: 12.6 µM.
For `Cc1ccc2c(c1)nnn2C1CCN(S(=O)(=O)c2ccc(C(=O)NC3CCCC3)cc2)CC1`, the Potency was inconclusive: 20 µM [activator, partial curve].
For `COCCn1c(C)cc(C(=O)COC(=O)c2c(C)nn(Cc3ccccc3)c2C)c1C`, the Potency was inconclusive: 31.6 µM [activator, single point].
In the case of `CCCn1c(-c2ccc(F)cc2)nc2c(N3CCN(Cc4nc(OC)cc(OC)n4)CC3)nc(C)nc21`, the Potency is reported as active: 15.8 µM.
In the case of `CCOc1ccc2nc(N)sc2c1`, the Potency is reported as inconclusive: 25.1 µM [activator, partial curve].
In the case of `COc1ccc(C(=O)Cn2nnc(-c3ccccc3-n3cnnn3)n2)cc1`, the Potency is reported as inconclusive: 39.8 µM [activator, single point].
For `COc1ccc(Oc2ncc3ncc(=O)n(C[C@H]4CCCO4)c3n2)cc1`, the Potency was “inactive”.
With `CCC(=O)N1CCN(c2ccc(Cl)cc2NC(=O)c2ccc3c(c2)OCCO3)CC1` the Potency was inconclusive: 31.6 µM [activator, single point].
With `CC(C)CN1CCC2(CC1)CCN(C(=O)c1cc(C(F)(F)F)cc(C(F)(F)F)c1)CC2` the Potency was inconclusive: 6.31 µM [activator, single point].
With `N#CC1=C(SCC(=O)NC23CC4CC(CC(C4)C2)C3)NC(=O)C(C#N)C12CCCCC2` (stereo not drawn) the Potency was inconclusive: 39.8 µM [activator, single point].
For `CN1/C(=C\C(=O)c2cccs2)Sc2ccccc21`, the Potency was inconclusive: 39.8 µM [activator, single point].
With `CCN(CC)CCCC(C)n1c(-c2ccccc2)nc2c(NC3CCCCC3)nc(C)nc21` (stereo not drawn) the Potency was inconclusive: 5.01 µM [activator, partial curve].
With `O=C(NCc1ccco1)c1cccn2c(=O)c3sccc3nc12` the Potency was “inactive”.
In the case of `N#CC1=C(C2CC2)CC(c2ccccc2)C(C#N)=C1N` (stereo not drawn), the Potency is reported as “inactive”.
With `COc1cccc(-c2cc(N(C)Cc3ccco3)ncn2)c1` the Potency was “inactive”.
With `O=C1CCc2cc(S(=O)(=O)N3CCC(C(=O)NCCC4=CCCCC4)CC3)ccc2N1` the Potency was inconclusive: 7.94 µM [activator, single point].
With `COc1ccccc1OCCSc1nnnn1-c1ccc(C)cc1` the Potency was inconclusive: 25.1 µM [activator, single point].
In the case of `Cc1cc(C)nc(SCC(=O)c2cc3ccccc3oc2=O)n1`, the Potency is reported as “inactive”.
With `N#Cc1nc(COc2ccc(F)cc2)oc1N1CCN(Cc2ccccc2)CC1` the Potency was active: 6.31 µM.
For `c1ccc(-c2nc(N3CCN(c4ccccc4)CC3)nc(-n3ccnc3)n2)cc1`, the Potency was inconclusive: 1 µM [activator, full curve].
For `CCOc1ccc(NC(=O)N(CCC(C)C)C(C)c2ccco2)cc1` (stereo not drawn), the Potency was inconclusive: 39.8 µM [activator, single point].
